Out of some 390,000 compounds screened, about 4,700 (1.2%) were called active. Inconclusive means that the source gave no clear call. Such entries were picked first, then a sample of the others. Calls come from the whole dose curve; as a rule, active = well fitted inhibition curve with a large enough effect; inconclusive = small, poorly fitted or top-dose-only effect, or another doubt; inactive = no such curve, though single readings can be large or run the other way. Where the call is inconclusive, the potency comes from a doubtful curve fit.
These compounds were tested against DNA polymerase eta (Homo sapiens) (UniProt Q9Y253) (assay: qHTS for Inhibitors of Polymerase Eta). Conditions: recombinant Pol eta, fluorescent DNA replication assay; series mostly up to 114 µM; activity change, negative = inhibition: at the top concentration.
In short: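 Pol eta at 10 nM preincubated with compounds 15 min at room temperature; reaction started with fluorescent substrate (50 nM final) and read kinetically at 0 and 10 min.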
% is set by controls: 0 for no effect and ±100 for the full control effect; potency is the fitted concentration of half-maximal effect; tags give direction and shape of the fitted curve.

Sequence of UniProt Q9Y253 (Q9Y253 whole entry, looked up): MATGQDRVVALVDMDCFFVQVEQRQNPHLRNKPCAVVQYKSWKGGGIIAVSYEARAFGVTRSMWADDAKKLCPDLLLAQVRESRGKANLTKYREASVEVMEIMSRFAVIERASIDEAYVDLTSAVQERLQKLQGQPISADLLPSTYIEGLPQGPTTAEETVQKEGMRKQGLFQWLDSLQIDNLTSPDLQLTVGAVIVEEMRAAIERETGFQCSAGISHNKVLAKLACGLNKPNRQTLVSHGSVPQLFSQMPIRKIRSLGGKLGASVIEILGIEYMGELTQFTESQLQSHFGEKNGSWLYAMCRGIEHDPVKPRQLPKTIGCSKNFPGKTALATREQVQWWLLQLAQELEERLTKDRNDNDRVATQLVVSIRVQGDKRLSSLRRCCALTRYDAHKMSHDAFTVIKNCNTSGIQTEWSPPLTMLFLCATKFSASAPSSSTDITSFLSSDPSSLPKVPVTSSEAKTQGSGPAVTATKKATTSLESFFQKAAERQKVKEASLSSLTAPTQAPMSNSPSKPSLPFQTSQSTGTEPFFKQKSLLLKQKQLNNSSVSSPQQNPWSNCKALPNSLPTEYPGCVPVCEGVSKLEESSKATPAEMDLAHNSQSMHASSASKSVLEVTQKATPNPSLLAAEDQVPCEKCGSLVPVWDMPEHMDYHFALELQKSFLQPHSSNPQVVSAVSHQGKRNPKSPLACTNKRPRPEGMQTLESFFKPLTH

**Q.** `O=C(CC1C(=O)OCN1C(=O)OCc1ccccc1)OCC(=O)c1ccccc1` (configuration not stated) was tested. Which Potency did it give?
**A.** inconclusive: 31.6 µM [inhibitor, single point]

**Q.** Which Potency does the source give for `CCOC(=O)C1CCN(C(=O)COC(=O)c2ccc([N+](=O)[O-])o2)CC1` here?
**A.** active: 79.4 µM

**Q.** Which “activity change, negative = inhibition” value does the source give for `O=C1CS/C(=N/N=C/c2cccs2)N1Cc1ccc(F)cc1` here?
**A.** inactive: 7.86%

**Q.** Which “activity change, negative = inhibition” value does the source give for `CCN(C[C@H]1N[C@@](CC)(C(=O)OC)[C@H]2C(=O)N(Cc3ccccc3)C(=O)[C@@H]12)C(=O)COc1ccccc1` here?
**A.** inactive: -8.83%

**Q.** How did the Potency turn out when `Cc1ccc2c(CC(=O)OCn3nnc4ccccc4c3=O)coc2c1` was run?
**A.** inconclusive: 31.6 µM [inhibitor, single point]

**Q.** With `Cc1ccc(-c2cn3cccnc3n2)cc1NC(=O)Nc1ccc(F)cc1` as the compound, how does the “activity change, negative = inhibition” value read?
**A.** inactive: -9.92%

**Q.** With `O=C(O)c1cccc(Cn2c(Cl)c(/C=N/NC(=O)c3ccccc3O)sc2=O)c1` as the compound, how does the Potency read?
**A.** inconclusive: 35.5 µM [inhibitor, full curve]

**Q.** Which Potency does the source give for `CCc1nnc(NC(=O)CSc2ccc(-c3nc4ccccc4[nH]3)cn2)s1` here?
**A.** inconclusive: 100 µM [inhibitor, partial curve, poor fit]

**Q.** For `CN(c1ccc(OCC(=O)NC2CCC(O)CC2)cc1)S(=O)(=O)c1ccc(Cl)cc1` (configuration not stated), which “activity change, negative = inhibition” value is on record?
**A.** inactive: -20.2%

**Q.** With `Cn1nc(-c2ccccc2)nc1-c1ccccc1` as the compound, how does the “activity change, negative = inhibition” value read?
**A.** inactive: -7.06%

**Q.** With `CCN=C1S/C(=C\c2cc(Br)c(O)c(OC)c2)C(=O)N1CC` as the compound, how does the “activity change, negative = inhibition” value read?
**A.** inactive: -9.24%

**Q.** How did the Potency turn out when `COc1ccc(/C=C2/SC(=S)N(NS(=O)(=O)c3ccc(C)cc3)C2=O)cc1` was run?
**A.** active: 79.4 µM

**Q.** Which Potency does the source give for `COc1ccc(-c2noc(CCC(=O)N3CCN(Cc4ccccc4)CC3)n2)cc1` here?
**A.** inconclusive: 39.8 µM [inhibitor, partial curve, poor fit]

**Q.** Which Potency does the source give for `C=CCc1cccc2cc(C(=O)N3CCN(C(=O)OCC)CC3)c(=O)oc12` here?
**A.** inconclusive: 39.8 µM [inhibitor, partial curve, poor fit]

**Q.** `C/C(=N\Nc1ccc(Cl)c(C(=O)O)c1)c1ccc(N2CCOCC2)cc1` was tested. Which Potency did it give?
**A.** active: 28.2 µM

**Q.** For `Clc1nssc1=Nc1ccccc1`, which “activity change, negative = inhibition” value is on record?
**A.** inactive: 14.5%

**Q.** With `CC1(C(=O)NNC(=O)c2ccc(=O)oc2)CC1Br` (configuration not stated) as the compound, how does the Potency read?
**A.** active: 20 µM

**Q.** `Cc1cc(C)n2c(SCC(=O)N(C)C3CCS(=O)(=O)C3)nnc2n1` (configuration not stated) was tested. Which Potency did it give?
**A.** inconclusive: 31.6 µM [inhibitor, partial curve]

**Q.** With `Cc1ccc(-c2c(C(=O)Nc3ccccc3C)c(C)[nH]c(=S)c2C#N)o1` as the compound, how does the Potency read?
**A.** inconclusive: 79.4 µM [inhibitor, single point]

**Q.** How did the Potency turn out when `Cc1c(NS(=O)(=O)c2cccc(C(=O)NCc3ccco3)c2)c(=O)n(-c2ccccc2)n1C` was run?
**A.** inconclusive: 14.1 µM [inhibitor, full curve, poor fit]

**Q.** For `CCN1/C(=C/c2ccc3cc(C)ccc3[n+]2CC)Sc2ccc3sccc3c21`, which Potency is on record?
**A.** inconclusive: 3.55 µM [inhibitor, full curve, poor fit]

**Q.** With `COc1ccc(CCNC(=O)c2cc3n(n2)CCCN(Cc2ccc(C)cc2)C3=O)cc1OC` as the compound, how does the “activity change, negative = inhibition” value read?
**A.** inactive: 8.07%

**Q.** Which Potency does the source give for `Nc1nc2c(s1)CCc1c-2cnn1-c1ccccc1` here?
**A.** active: 79.4 µM

**Q.** `c1csc(-c2nn3c(Cn4cnc5ccccc54)nnc3s2)c1` was tested. Which “activity change, negative = inhibition” value did it give?
**A.** inactive: -5.48%

**Q.** How did the Potency turn out when `CC(=O)C1=C(c2ccccc2)N(C(C)=O)n2c(nnc2C2CCCCC2)S1` was run?
**A.** inconclusive: 89.1 µM [inhibitor, partial curve, poor fit]

**Q.** For `COc1ccc(/C(C)=N\NC(=O)CNC(=O)C(c2ccccc2)c2ccccc2)cc1OC`, which “activity change, negative = inhibition” value is on record?
**A.** inactive: -11.4%

**Q.** For `Cc1cc(C)n(CCc2nc3c4ccccc4nc(N4CCN(c5cccc(C)c5C)CC4)n3n2)n1`, which “activity change, negative = inhibition” value is on record?
**A.** inactive: -8.61%

**Q.** With `CC1CCCC(NC(=O)COC(=O)c2ccc([N+](=O)[O-])s2)C1C` (configuration not stated) as the compound, how does the Potency read?
**A.** inconclusive: 15.8 µM [inhibitor, full curve, poor fit]

**Q.** How did the “activity change, negative = inhibition” value turn out when `O=S(=O)(NCCS(=O)(=O)N1CCN(c2cccc(Cl)c2)CC1)c1ccc(F)cc1` was run?
**A.** inactive: -15.1%

**Q.** How did the “activity change, negative = inhibition” value turn out when `CCOc1ccc(C2=NC(c3cccs3)=Nc3ccc(CC)cc3N2)cc1OCC` was run?
**A.** inactive: -23.1%

**Q.** With `O=C(NCCN1CCCC1)c1ccc(Cn2c(=S)[nH]c3cc4c(cc3c2=O)OCO4)cc1` as the compound, how does the Potency read?
**A.** inconclusive: 100 µM [inhibitor, single point]

**Q.** Which Potency does the source give for `CCn1cc2nc(SCC(=O)Nc3ccc(C)cc3)n(Cc3ccc(C)cc3)c(=O)c2n1` here?
**A.** inconclusive: 100 µM [inhibitor, partial curve, poor fit]

**Q.** `O=C(COc1ccccc1Cl)Nc1nc(-c2cccs2)cs1` was tested. Which Potency did it give?
**A.** inconclusive: 56.2 µM [inhibitor, partial curve, poor fit]

**Q.** How did the Potency turn out when `COCCCNC(=O)Cn1nc(-c2ccccc2OC)ccc1=O` was run?
**A.** inconclusive: 20 µM [inhibitor, partial curve, poor fit]

**Q.** How did the Potency turn out when `Cc1cc(-c2nnc(SCC(=O)Nc3cccc(Cl)c3)n2N)n[nH]1` was run?
**A.** inconclusive: 79.4 µM [inhibitor, partial curve, poor fit]

**Q.** How did the Potency turn out when `COc1cc2c(cc1NC(=O)COC(=O)C(CCSC)NC(=O)c1ccccc1Cl)oc1ccccc12` (configuration not stated) was run?
**A.** inconclusive: 0.398 µM [inhibitor, partial curve, poor fit]

**Q.** With `COCC(C)NC(C(=O)Nc1ccc(C)c(Cl)c1)c1ccccc1` (configuration not stated) as the compound, how does the “activity change, negative = inhibition” value read?
**A.** inactive: -3.62%

**Q.** How did the Potency turn out when `O=C(C[C@H]1C[C@H](C(=O)N2CCCCC2)[C@@]2(CCc3ccccc3)c3[nH]c4ccc(Cl)cc4c3CCN2C1=O)NCc1cccc(C(F)(F)F)c1` was run?
**A.** inconclusive: 100 µM [inhibitor, partial curve, poor fit]

**Q.** With `Cc1ccccc1Nc1nn2c(=O)c3ccc(C(=O)NCc4ccccc4)cc3nc2s1` as the compound, how does the Potency read?
**A.** inconclusive: 89.1 µM [inhibitor, single point]

**Q.** With `COC(=O)c1cccc2c1NC(=O)C2=O` as the compound, how does the Potency read?
**A.** inconclusive: 89.1 µM [inhibitor, partial curve]

**Q.** With `Cc1cccc(NC(=O)CN2C(=O)N/C(=C/c3ccc(-c4cccc(C(=O)O)c4C)o3)C2=O)c1` as the compound, how does the Potency read?
**A.** active: 79.4 µM

**Q.** How did the Potency turn out when `CN(C(=O)c1ccc(OC2CCN(C(=O)c3cccnc3)CC2)cc1)C1CCCCC1` was run?
**A.** inconclusive: 100 µM [inhibitor, single point]

**Q.** How did the Potency turn out when `CCN(CC)c1ccc(N=Nc2nn(C)c(C)c2[N+](=O)[O-])cc1` was run?
**A.** inconclusive: 44.7 µM [inhibitor, partial curve, poor fit]

**Q.** Which Potency does the source give for `Cn1c(SCC(=O)c2ccc(O)c(O)c2)nnc1-c1cccs1` here?
**A.** active: 22.4 µM

**Q.** With `O=C(O)c1ccc(-c2nc3ccccc3s2)o1` as the compound, how does the “activity change, negative = inhibition” value read?
**A.** inactive: 26.2%

**Q.** For `CC1N(C)c2cc(NC(=O)c3ccco3)ccc2C1(C)C` (configuration not stated), which Potency is on record?
**A.** inconclusive: 79.4 µM [inhibitor, partial curve]

**Q.** `CCOc1ccc(NC(=S)N(Cc2ccc(N(C)C)cc2)Cc2ccco2)cc1` was tested. Which Potency did it give?
**A.** inconclusive: 31.6 µM [inhibitor, partial curve]

**Q.** For `O=C(NCCc1ccc(Cl)cc1)c1cnc2sc(N3CCCC3)nn2c1=O`, which “activity change, negative = inhibition” value is on record?
**A.** inactive: 6.89%

**Q.** `Nc1nc(SCC(=O)N2N=C3/C(=C/c4ccco4)CCCC3C2c2ccco2)n[nH]1` (configuration not stated) was tested. Which Potency did it give?
**A.** inconclusive: 17.8 µM [inhibitor, partial curve, poor fit]

**Q.** Which Potency does the source give for `O=C(O)c1ccc(COc2c(F)c(F)c(F)c(F)c2F)o1` here?
**A.** active: 22.4 µM

**Q.** For `C(=N\N1CCN(Cc2ccccc2)CC1)/c1ccccc1`, which Potency is on record?
**A.** inconclusive: 100 µM [inhibitor, partial curve, poor fit]

**Q.** Which Potency does the source give for `COc1n[nH]c(C(=O)Nc2nc3ccccc3s2)c1[N+](=O)[O-]` here?
**A.** inconclusive: 15.8 µM [inhibitor, full curve]

**Q.** Which Potency does the source give for `CC1(C(=O)OCC(=O)Nc2nc(-c3ccc(F)c(F)c3)cs2)CC1(Cl)Cl` (configuration not stated) here?
**A.** inconclusive: 79.4 µM [inhibitor, partial curve, poor fit]

**Q.** How did the “activity change, negative = inhibition” value turn out when `Cc1ccc2oc(=O)c3cnn(CC(=O)N4CCN(c5cccc(Cl)c5)CC4)c3c2c1` was run?
**A.** inactive: -17.3%

**Q.** For `C=CCn1cccc(C(=O)Nc2ccc(F)cc2)c1=O`, which Potency is on record?
**A.** inconclusive: 35.5 µM [inhibitor, single point]

**Q.** With `Clc1cccc(COn2c(-c3ccc(Cl)cc3Cl)nc3ncccc32)c1` as the compound, how does the Potency read?
**A.** inconclusive: 79.4 µM [inhibitor, partial curve, poor fit]

**Q.** Which Potency does the source give for `Cc1ccc(NC(=O)c2nc(S(=O)(=O)Cc3ccc(F)cc3)ncc2Cl)cc1C` here?
**A.** inconclusive: 100 µM [inhibitor, partial curve, poor fit]

**Q.** With `N#Cc1ccccc1Cn1c(=O)n(Cc2ccc(C(=O)NCc3ccco3)cc2)c(=O)c2ccccc21` as the compound, how does the Potency read?
**A.** inconclusive: 8.91 µM [inhibitor, partial curve]

**Q.** For `Cc1ccc(NC(=O)c2cnccn2)cc1S(=O)(=O)N1CCCCCC1`, which Potency is on record?
**A.** inconclusive: 12.6 µM [inhibitor, partial curve, poor fit]

**Q.** How did the Potency turn out when `NS(=O)(=O)c1ccc(CNS(=O)(=O)c2cc(C(=O)O)ccc2Cl)cc1` was run?
**A.** active: 20 µM

**Q.** With `CCOc1ccc2c(c1)C(=O)C(=O)N2CC1COc2ccccc2O1` (configuration not stated) as the compound, how does the Potency read?
**A.** inconclusive: 79.4 µM [inhibitor, partial curve, poor fit]

**Q.** Which Potency does the source give for `CN1CCN(C(=S)c2cn(CCOc3ccccc3)c3ccccc23)CC1` here?
**A.** inconclusive: 89.1 µM [inhibitor, partial curve, poor fit]

**Q.** Which Potency does the source give for `Cc1cc(C(=O)NCc2cc(C(=O)O)oc2C)c(C)o1` here?
**A.** inconclusive: 89.1 µM [inhibitor, partial curve, poor fit]

**Q.** How did the Potency turn out when `Cc1c(C(=O)C(=O)N2CC=C(c3ccccc3)CC2)c2ccccc2n1C` was run?
**A.** inconclusive: 79.4 µM [inhibitor, partial curve, poor fit]

**Q.** Which “activity change, negative = inhibition” value does the source give for `Nc1cc2c(cc1Cl)-c1ccc([N+](=O)[O-])cc1C2=NO` here?
**A.** inactive: -15.5%

**Q.** `CCOc1cc2nc(-c3ccc(OC)c(OC)c3)nc(NCCCN3CCOCC3)c2cc1OC` was tested. Which Potency did it give?
**A.** inconclusive: 15.8 µM [inhibitor, partial curve, poor fit]

**Q.** How did the Potency turn out when `O=C(COc1ccc2ccccc2c1)Nc1ccc(Br)cc1C(=O)O` was run?
**A.** inconclusive: 17.8 µM [inhibitor, partial curve, poor fit]

— PubChem BioAssay AID588591 (National Center for Advancing Translational Sciences (NCATS), 2011)
